The results in this text go back to PMC4336329 (PLoS ONE, 2015).

Among all 310,000 compounds or so, about 14,000 (4.5%) showed an effect of 50% or more. Effects have a minus sign here. The list shows a part of the results.
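Further: peak tail current of the secondary pulse compared with the same well before compound.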

Sequence of human ether-à-go-go-related gene (hERG) potassium channel (Q12809 whole entry, looked up): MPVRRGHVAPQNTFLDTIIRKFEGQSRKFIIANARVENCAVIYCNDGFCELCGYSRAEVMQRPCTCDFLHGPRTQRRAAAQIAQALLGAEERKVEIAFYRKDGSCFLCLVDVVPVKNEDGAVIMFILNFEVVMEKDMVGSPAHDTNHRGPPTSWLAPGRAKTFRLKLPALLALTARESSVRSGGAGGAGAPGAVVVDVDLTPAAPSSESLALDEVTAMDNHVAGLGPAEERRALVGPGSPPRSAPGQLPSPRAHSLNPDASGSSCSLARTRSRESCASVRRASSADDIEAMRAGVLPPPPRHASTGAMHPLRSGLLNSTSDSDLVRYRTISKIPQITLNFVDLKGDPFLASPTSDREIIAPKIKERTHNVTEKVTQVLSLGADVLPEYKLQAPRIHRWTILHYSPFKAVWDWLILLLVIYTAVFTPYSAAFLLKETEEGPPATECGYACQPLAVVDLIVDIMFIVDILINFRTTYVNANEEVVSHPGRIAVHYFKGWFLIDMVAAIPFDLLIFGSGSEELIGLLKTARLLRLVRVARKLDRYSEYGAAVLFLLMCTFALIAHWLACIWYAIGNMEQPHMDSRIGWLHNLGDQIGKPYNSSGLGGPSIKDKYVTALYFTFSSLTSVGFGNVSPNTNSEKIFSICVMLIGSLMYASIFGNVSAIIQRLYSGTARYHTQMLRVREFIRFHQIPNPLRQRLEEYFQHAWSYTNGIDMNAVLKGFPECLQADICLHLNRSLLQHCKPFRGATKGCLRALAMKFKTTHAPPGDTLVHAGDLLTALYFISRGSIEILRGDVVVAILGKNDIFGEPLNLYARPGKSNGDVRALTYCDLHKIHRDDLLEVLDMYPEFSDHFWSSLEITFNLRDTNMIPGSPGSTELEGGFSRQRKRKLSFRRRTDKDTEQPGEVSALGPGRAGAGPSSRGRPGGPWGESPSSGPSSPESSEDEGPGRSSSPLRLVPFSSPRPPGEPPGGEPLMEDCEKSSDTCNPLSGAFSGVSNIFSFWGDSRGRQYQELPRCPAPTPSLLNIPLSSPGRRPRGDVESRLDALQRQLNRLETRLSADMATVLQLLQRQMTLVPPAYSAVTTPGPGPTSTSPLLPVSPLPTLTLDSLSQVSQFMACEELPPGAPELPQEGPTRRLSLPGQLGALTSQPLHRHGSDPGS

The experiment addresses human ether-à-go-go-related gene (hERG) potassium channel (human, UniProt Q12809). In words: primary screen, population patch clamp on CHO cells stably expressing hERG.
With `CSC1=C(C#N)C(c2ccc(C(C)C)cc2)CC(=O)N1` (stereo not drawn), the “hERG current change (%, negative = inhibition) at 10uM” value came out at 5.77%.
In the case of `Br.c1ccc2c(c1)ncn2CCN1CCCCC1`, the “hERG current change (%, negative = inhibition) at 10uM” value is listed as 5.39%.
Under `CCN(CC)C(=O)CCCC(=O)N(CC)CC` stands 19.3%; under `O=C(Nc1ccc(Cl)cc1)N1CCOC12CCC1(CC2)OCCO1`, 4.33%; under `Cc1cc(C)n(CCCNC(=O)c2ccco2)n1`, 4.14%.
As for `Cc1nc(N2CCN(Cc3ccccc3)CC2)nc2c1CCC2`, the “hERG current change (%, negative = inhibition) at 10uM” value was -36.7%.
For the compound `CC1CCN(C(=O)CCc2nc3cc(S(=O)(=O)N(C)C)ccc3n2C)CC1`, the “hERG current change (%, negative = inhibition) at 10uM” value was -3.13%.
Under `O=C(Cn1nc(-c2ccc(Cl)cc2)ccc1=O)N1CCC2(CC1)OCCO2` stands -6.85%; under `O=C(Nc1ccccc1O)c1ccc(C(=O)c2ccccc2)o1`, 11.2%; under `COc1ccccc1C(=O)Nc1ccc(C(=O)O)cc1`, 9.84%.
With `CO/N=C1\CCn2c1c(C)c1ccccc12` the figure was 7.1%; with `O=C(CN1C(=O)c2cccnc2Oc2ccc(Cl)cc21)N1CCCCCC1`, -14.8%; with `O=C(CCc1ccccc1)Nc1cc(C(=O)O)cc(C(=O)O)c1`, 20.4%.
Take `COc1cc(SC)ccc1C(=O)OCC(=O)NCC(C)C`: the “hERG current change (%, negative = inhibition) at 10uM” value was 45.1%.
With `CS(=O)(=O)n1nc(-c2ccc(Cl)cc2)nc1N` the figure was 3.95%; with `CCOC(=O)CSc1nc2ccccc2c(=O)n1-c1ccc(C(=O)NCCOC)cc1`, -19.1%.
With `CCCn1cnc2sc(C(N)=O)c(C)c2c1=O` the figure was 12.1%.
On to `c1ccc2c(c1)OCC(c1csc3ncnc(N4CCOCC4)c13)O2` (stereo not drawn), for which the “hERG current change (%, negative = inhibition) at 10uM” value was 13.8%.
Under `O=C(CN1C(=O)S/C(=C\c2ccc(F)cc2)C1=O)NC1C=CS(=O)(=O)C1` (stereo not drawn) stands 15.4%; under `COc1ccc(Cl)cc1NC(=O)CSc1nnc(CNC(=O)c2cccs2)o1`, -39.8%.
As to `CC(=O)c1sc2nsc(SCCN3CCCCC3)c2c1N`, the “hERG current change (%, negative = inhibition) at 10uM” value was -3.38%.
As for `N#CC1(NC(=O)COC(=O)CN2C(=O)c3ccccc3C2=O)CCCCC1`, the “hERG current change (%, negative = inhibition) at 10uM” value is reported as -12.2%.
Take `COC(=O)C1CCN(C(=O)c2oc3c(Cl)cc(C)cc3c2C)CC1`: the “hERG current change (%, negative = inhibition) at 10uM” value is -16.6%.
As to `Br.O=C(Cn1c(NCCO)nc2ccccc21)c1ccc([N+](=O)[O-])cc1`, the “hERG current change (%, negative = inhibition) at 10uM” value is 12%.
With `COc1ccc2[nH]c3c(c2c1)CCN1C(=O)N([C@@H](C)C(=O)NCc2c(F)cccc2Cl)C(=O)[C@]31C` the figure was -21.3%.
Consider `Cc1cccc(OCC(=O)N/N=C/c2sc(=O)n(Cc3cccc(C(=O)O)c3)c2Cl)c1`, for which the “hERG current change (%, negative = inhibition) at 10uM” value came out at 13.2%.
With `CCC(c1nnc(SCC(=O)Nc2ccc(N3CCOCC3)cc2)n1Cc1ccccc1)N(C)C` (stereo not drawn) the figure was -0.198%; with `CC(OC(=O)c1cc(Br)ccc1O)C(=O)NC1(C#N)CCCCC1` (stereo not drawn), 27.3%; with `C/C(=N/NC(=O)c1ccc(C)s1)c1cccc(NC(=O)COc2ccc(Cl)cc2Cl)c1`, 7.81%.
With `COc1ccc(-c2cc(C(F)(F)F)n3nc(C(=O)N4CCN(C(=O)c5ccco5)CC4)cc3n2)cc1` the figure was -0.929%.
As for `Cc1ccc(N2CN=C3SCC(=O)N3C2)cc1C`, the “hERG current change (%, negative = inhibition) at 10uM” value is reported as -9.34%.
Take `Cc1ccc2nc(-c3ccccc3N)[nH]c2c1`: the “hERG current change (%, negative = inhibition) at 10uM” value is given as -4.46%.
Take `Cc1ccc(CSc2ccc3nnc(-c4cccnc4)n3n2)cc1`: the “hERG current change (%, negative = inhibition) at 10uM” value is on record as -79.3%.
For the compound `O=C(N/N=C/c1ccccc1C(=O)O)c1ccccc1Br`, the “hERG current change (%, negative = inhibition) at 10uM” value is recorded as 20.6%.
Under `Cc1ccc(S(=O)(=O)N2CCN(C(=O)CN3CCCCC3)C2C(C)C)cc1` (stereo not drawn) stands -17.6%.
Under `COc1cc(CC(=O)Nc2ccc3nc(SC)sc3c2)cc(OC)c1OC` stands 1.95%; under `O=C1CC(c2ccc(S(=O)(=O)NCc3ccccc3)cc2)CN1` (stereo not drawn), -11.9%.
With `Nn1c(Cc2cccc3ccccc23)nnc1SCc1ccc(Cl)c(Cl)c1` the figure was 14.4%; with `O=C(c1ccc(F)cc1)N1CCC(O)(c2cccnc2)CC1`, 0.227%.
With `Cc1ccc(CN2C(=O)C3CCCN3c3ccc(C#N)cc32)cc1` (stereo not drawn), the “hERG current change (%, negative = inhibition) at 10uM” value is 7.93%.
As for `CSCCC(NC(=O)c1ccccc1)C(=O)N/N=C(\C)c1ccccc1` (stereo not drawn), the “hERG current change (%, negative = inhibition) at 10uM” value is listed as -11.7%.
With `CCN(C(=O)CSc1nncn1-c1ccccc1)c1c(N)n(Cc2ccccc2)c(=O)[nH]c1=O` the figure was 5.42%.
With `CC(C)C[C@H](NC(=O)OC(C)(C)C)C(=O)N[C@@H](CO)[C@H](O)[C@@H]1C[C@@H]1C(=O)N1CCCC1` the figure was -15.3%.
With `Cc1nccn1-c1ccc(C(F)(F)F)cc1NC=O` the figure was 9.37%; with `CCCCN1C(=O)C2(NNc3ccccc3O2)c2ccccc21` (stereo not drawn), -34.1%.
